# Measurements taken from publication PMC4336329 (PLoS ONE, 2015).
# The whole screen tested about 310,000 compounds, of which about 14,000 (4.5%) showed an effect of 50% or more. The effect is printed as a negative number. The list shows a part of the results.
# Molecular target: human ether-à-go-go-related gene (hERG) potassium channel (human, UniProt Q12809)
# Assay: primary screen, population patch clamp on CHO cells stably expressing hERG
# 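Further: peak tail current of the secondary pulse compared with the same well before compound.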
# human ether-à-go-go-related gene (hERG) potassium channel, sequence (Q12809 whole entry, looked up): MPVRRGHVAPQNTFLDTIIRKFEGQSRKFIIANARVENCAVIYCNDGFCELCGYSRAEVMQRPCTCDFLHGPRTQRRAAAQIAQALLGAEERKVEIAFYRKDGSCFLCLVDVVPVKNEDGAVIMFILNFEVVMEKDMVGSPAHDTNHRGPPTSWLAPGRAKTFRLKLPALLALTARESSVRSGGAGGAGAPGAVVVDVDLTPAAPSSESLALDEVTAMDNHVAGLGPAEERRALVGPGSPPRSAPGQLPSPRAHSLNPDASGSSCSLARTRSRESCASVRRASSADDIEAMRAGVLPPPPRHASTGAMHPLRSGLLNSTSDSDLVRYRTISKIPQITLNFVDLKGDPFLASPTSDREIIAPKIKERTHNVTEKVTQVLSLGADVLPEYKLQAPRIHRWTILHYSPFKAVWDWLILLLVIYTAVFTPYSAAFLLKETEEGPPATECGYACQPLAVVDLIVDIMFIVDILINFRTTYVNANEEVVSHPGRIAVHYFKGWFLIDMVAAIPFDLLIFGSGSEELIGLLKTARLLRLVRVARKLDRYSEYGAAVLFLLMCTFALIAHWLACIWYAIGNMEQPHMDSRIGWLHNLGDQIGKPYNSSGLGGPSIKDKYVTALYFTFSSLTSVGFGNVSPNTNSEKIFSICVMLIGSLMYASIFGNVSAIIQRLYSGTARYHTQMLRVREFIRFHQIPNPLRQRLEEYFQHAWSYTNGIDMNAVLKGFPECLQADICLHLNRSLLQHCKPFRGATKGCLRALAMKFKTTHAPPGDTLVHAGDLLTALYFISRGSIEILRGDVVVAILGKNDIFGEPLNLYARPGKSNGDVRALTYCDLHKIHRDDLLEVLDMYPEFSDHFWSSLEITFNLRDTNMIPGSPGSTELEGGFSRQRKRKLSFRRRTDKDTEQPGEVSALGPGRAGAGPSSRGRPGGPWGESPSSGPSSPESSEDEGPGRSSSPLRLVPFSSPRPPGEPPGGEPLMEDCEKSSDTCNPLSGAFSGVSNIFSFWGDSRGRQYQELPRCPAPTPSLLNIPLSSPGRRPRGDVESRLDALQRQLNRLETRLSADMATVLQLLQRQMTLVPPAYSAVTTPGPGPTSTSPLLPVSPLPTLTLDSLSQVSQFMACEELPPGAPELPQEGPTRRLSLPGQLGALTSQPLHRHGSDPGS
row,SMILES,"hERG current change (%, negative = inhibition) at 10uM"
1,N#Cc1ccccc1S(=O)(=O)N1CCN(C(=O)CCc2ccccc2)CC1,-15.1%
2,COc1ccc(CCNC(=O)C2CCN(S(=O)(=O)N3CCCCCC3)CC2)cc1OC,-8.6%
3,COc1ccc(CN2C[C@H](Cc3ccccc3)[C@@H](CC(=O)Nc3ccccc3)C2=O)cc1,-10.5%
4,CCCC1(C(=O)O)NC(c2ccccc2O)C2C(=O)N(Cc3ccccc3)C(=O)C21 (centres unmarked),0.298%
5,O=C(NCC1(c2ccccc2)CCCC1)c1ccccc1Br,5.78%
6,Cc1nonc1NC(=O)CSc1nc(C23CC4CC(CC(C4)C2)C3)nc2ccccc12,12.6%
7,CCCCn1c(N)c(N(CCOC)C(=O)CN(C)S(=O)(=O)c2ccc(F)cc2)c(=O)[nH]c1=O,5.39%
8,CCOCCN1CCN(C2c3ccccc3CSc3ccccc32)CC1.O=C(O)C(=O)O (centres unmarked),-30.3%
9,Cc1cccc(Nc2nc(N)nc(CN3CCN(c4ccc(F)cc4)CC3)n2)c1,-73.3%
10,COc1ccc(N2CCN(Cc3nc4c(c(=O)n(C)c(=O)n4C)n3Cc3cccc(C)c3)CC2)cc1,-52.3%
11,COc1cccc(/C=C/C(=O)NCc2cn3cc(Cl)ccc3n2)c1,12.5%
12,COc1ccc(/C=C(\C#N)C(=O)NC2CCS(=O)(=O)C2)cc1OC (centres unmarked),17.4%
13,COc1cc(C(=O)Nc2ccc3c(c2)OCCO3)c(-n2cnnn2)cc1OC,-4.59%
14,COC(=O)c1cc(/C=C/c2ccccc2)on1,1.37%
15,C/C(=N\Nc1nccnc1Cl)c1ccc(O)c(C)c1,11.4%
16,CSc1ccccc1OC1CCN(Cc2ccccc2)CC1.Cl,-24.3%
17,CCOC(=O)CC1=NN(c2ccccc2)C(=O)/C1=C\c1ccc(N(C)C)cc1,24.6%
18,O=C1CSC(c2ccccc2O)N1Cc1ccccc1 (centres unmarked),-3.34%
19,CC(/C=N/NC(=O)CSc1ccccn1)=C\c1ccc(C(C)C)cc1,-9.1%
20,COCCN1C(=O)N(C)[C@@H](c2ccccc2)C(C(C)=O)=C1C,2.37%
21,CCCNC(=O)Cn1nc([N+](=O)[O-])c([N+](=O)[O-])c1C,13.7%
22,CCOc1ccc(NC(=O)CCC(=O)NNC(=O)Nc2cccc(Cl)c2)cc1,20.7%
23,O=C(CCNC(=O)C1CCN(S(=O)(=O)c2ccc(F)cc2)CC1)Nc1nccs1,15.5%
24,O=c1[nH]c2ccc(NC(=S)Nc3ccccc3Cl)cc2[nH]1,2.03%
25,CCn1cc(C(=O)NCCCN(CC(C)C)CC(C)C)c(=O)c2cc(S(=O)(=O)N3CCOCC3)ccc21,-11.3%
26,Cc1c(/C=N/NC(=O)CNc2ccccc2)c2ccccn2c1C(=O)c1ccc(Cl)cc1,6.9%
27,Cc1ccc(S(=O)(=O)NC(C(=O)N2CCOCCOCCOCCOCC2)C(C)C)cc1 (centres unmarked),19.1%

row,SMILES,"hERG current change (%, negative = inhibition) at 10uM"
1,COc1ccc(C(=O)Nc2ccc3c(c2)nc(CCNC(C)=O)n3C)cc1,14.6%
2,S=C(NC12CC3CC(CC(C3)C1)C2)N1CCOCC1,15.4%
3,CCC(=O)Nc1c(C(=O)Nc2cccc(OC)c2)oc2ccccc12,10.4%
4,CCN(CC)c1ccc(NC(=S)NC(=O)C2CCC2)cc1,17%
5,O=C(c1ccc(N2CC3CC(C2)c2cccc(=O)n2C3)c([N+](=O)[O-])c1)N1CCCC1 (centres unmarked),-13%
6,CCCCNC(=O)CCCCn1c(=S)[nH]c2c([nH]c3ccc(OC)cc32)c1=O,31%
7,CC(C)(C)NC(=O)NC(=O)CN1CCC(Cc2ccccc2)CC1,-8.8%
8,Cc1sc(NC(=O)CSc2nnc(CCNC(=O)c3cccs3)n2C)nc1-c1ccccc1,-43.8%
9,COc1ccc(S(N)(=O)=O)cc1C(=O)N(C)CC(=O)Nc1ccc(N2CCOCC2)cc1,20.5%
10,COc1ccccc1-n1c(SCC(=O)O)nc2c(sc(=S)n2-c2ccccc2C)c1=O,14.5%
11,CCCn1c(SC(C(=O)Nc2cc(C)ccc2OC)c2ccccc2)nc2ccccc2c1=O (centres unmarked),-5.09%
12,COc1ccc(CCNc2cc(N3CCN(C(=O)c4ccc(C)cc4)CC3)ccc2[N+](=O)[O-])cc1OC,8.2%
13,CCOC(=O)c1c(C)[nH]c(C)c1C(=O)CSc1nnnn1-c1ccccc1,0.494%
14,Cl.NC(=O)C1CCN(Cc2nnnn2Cc2ccco2)CC1,12.3%
15,CN(CCc1ccccn1)C(=O)CCC1CCCN(C(=O)CCOc2ccccc2)C1 (centres unmarked),0.23%
16,COc1ccc(S(=O)(=O)N2CCCC(C(=O)NCCN3CCOCC3)C2)cc1C (centres unmarked),-12.4%
17,COc1cccc(CC(=O)Nc2nc(-c3cccnc3)cs2)c1,-0.027%
18,Cc1c(CC(=O)NC(C)C)c(=O)oc2cc3c(cc12)CCC(C)(C)O3,14.1%
19,O=C(NCCCN1CCOCC1)c1ccc(/C=C2\Oc3ccccc3N(Cc3ccccc3F)C2=O)cc1,11.6%
20,O=C(O)C(=O)O.OCCN(Cc1ccccc1)Cc1ccccc1O,5.17%
21,Cc1ccc(S(=O)(=O)NCCCC(=O)N2CCC(C)CC2)cc1,-0.448%
22,CC(C)(Oc1ccc(CCNC(=O)c2ccc(-c3ccc(Cl)cc3)o2)cc1)C(=O)O,10.3%
23,COc1cc(/C=C/c2noc(-c3ccccc3O)n2)cc(OC)c1OC,9.26%
24,Cc1ccc(Cl)cc1NC(=O)CC(O)(C(F)(F)F)C(F)(F)F,-5.02%
25,COC(=O)c1c(C(=O)OC)c(-c2ccc(F)cc2)n2c1CS(=O)(=O)C2,-1.29%
26,CC(OC(=O)c1ccc(Cl)c(S(=O)(=O)N2CCc3ccccc32)c1)C(=O)Nc1ncc(Cl)cc1Cl (centres unmarked),-13.2%
